# Out of some 43,000 compounds screened, about 200 (0.47%) were called active. Roughly 12% stayed inconclusive and do not appear here. The call rests on the fitted dose curve; in most records, active means well fitted cell-killing curve with a large enough effect; inconclusive means small, poorly fitted or top-dose-only effect, or effect the other way; inactive means flat fitted curve, though single readings scatter. This is one part of the list.
# Assay: Cell viability qHTS assay in S16 Pmp22-F2sN cells; further: nearly all actives have a fitted effect of over 65% in size
# Conditions: S16 Pmp22-F2sN Schwann cells (luciferase reporters placed in the Pmp22 gene) viability, CellTiter-Glo, 24 h; series mostly up to 57.5 µM; activity change, negative = cytotoxicity: at the top concentration
# Summary of the method: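 Rat S16 Schwann reporter line, 24 h treatment with library compounds delivered at 23 nL per well. Cell viability by CellTiter-Glo luminescence.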
# On the % scale 0 is the no-effect control and ±100 the full control effect; potency means the concentration at half of the fitted maximal effect.
SMILES,"activity change, negative = cytotoxicity",Potency
Cc1ccc(NC(=O)C2(c3cccs3)CCOCC2)cc1Cl,inactive: 8.41%,
CCOc1ccccc1NC(=O)c1c(NC(=O)COc2ccc(Cl)cc2)sc2c1CCCCC2,inactive: 2.97%,
COCCNC(=O)CCC(=O)NNc1nc2ccccc2c2nc(C)nn12,inactive: -1.8%,
CS(=O)(=O)N1CCc2cc(C(=O)N3CCN(c4cccc(Cl)c4)CC3)ccc21,inactive: -8.38%,
O=C(NCCc1ccccc1)c1nn(-c2ccccc2F)nc1CO,inactive: -2.7%,
Cc1ccc2c(CNCCc3ccccc3)c(C(=O)O)n(Cc3ccccc3C)c2c1,inactive: 13.1%,
COc1cccc(NC(=O)Cn2nnc(C(=O)NCc3cccs3)c2N)c1,inactive: -0.991%,
COc1ccc(NC(=O)Cn2c(=O)n(-c3cc(C)cc(C)c3)c(=O)c3oc4ccccc4c32)cc1OC,inactive: -29.7%,
Cc1ccc(C)c(CSc2nnc3[nH]c(=O)cc(C)n23)c1,inactive: -13.5%,
Cc1ccc(S(=O)(=O)n2nc(C)c(S(=O)(=O)N3CCCCCC3)c2C)cc1,inactive: 10.5%,
CCC(Cn1nnc2ccccc2c1=O)NC(=O)Nc1cc(C)cc(C)c1 (stereo unspecified),inactive: 1.69%,
CC(C)C(=O)Nc1nnc2n1CCS2,inactive: 8.23%,
Cc1nc(N2CCCC2)c2c(C(=O)N3CCN(c4ccccc4)CC3)c(C)oc2n1,inactive: -3.14%,
CCOc1cc2sc(N3CCC(C(=O)Nc4ccc(CC)cc4)CC3)nc2cc1Br,inactive: 0.687%,
CCc1ccc(C(=O)c2cn(CC(=O)Nc3ccc(Cl)cc3)c3cc4c(cc3c2=O)OCO4)cc1,inactive: -0.748%,
Cc1ccc(Nc2nc3nonc3nc2Nc2cccc(C(F)(F)F)c2)cc1Cl,,active: 11.2 µM
CCOC(=O)C1=C(CN2CCN(c3ccc(OC)cc3)CC2)NC(=O)NC1c1ccc(OC)cc1 (stereo unspecified),inactive: 0.685%,
CCN(CC)CCCNc1oc(/C=C/c2ccc(OC)c(OC)c2)nc1C#N,inactive: 5.64%,
COc1ccc(NC(=O)Cn2cc(S(=O)(=O)N3CCN(c4ccccc4F)CC3)c3ccccc3c2=O)cc1Cl,inactive: 2.72%,
CCOc1ccc(-c2cc(C(=O)N3CCN(c4cc(Cl)ccc4C)CC3)c3ccccc3n2)cc1,inactive: -5.22%,
CNc1c(NC(=O)c2ccc(OC)c(OC)c2)c(=O)oc2ccccc12,inactive: -2.11%,
COc1cccc(CNC(=O)C2CCC(CNS(=O)(=O)c3ccc4c(c3)CCCC(=O)N4)CC2)c1 (stereo unspecified),inactive: 1.96%,
CCN(CC)C(=O)Cn1c(=O)cc(C)c2c(C)nn(-c3cccc(Cl)c3C)c21,inactive: -29.4%,
Cc1ccc(NC(=O)CSc2nnc3scc(-c4ccc(Cl)cc4)n23)cc1,inactive: -13%,

SMILES,"activity change, negative = cytotoxicity",Potency
Cc1cc2c(cc1S(=O)(=O)CCC(=O)N1CCC(C)CC1)OCC(=O)N2,inactive: 10.6%,
CCc1ccc(C(=O)c2cn(CC(=O)Nc3ccc4c(c3)OCO4)c3ccc(CC)cc3c2=O)cc1,inactive: -4.52%,
Cc1ccc(NC(=O)C(Cc2c[nH]c3ccccc23)NC(=O)OC(C)(C)C)c(C)c1 (stereo unspecified),inactive: -16.7%,
Cc1cc(C)cc(NC(=O)NCCc2c(C)nn(C)c2C)c1,inactive: 9.11%,
COc1ccc(NC(=O)CN2C(=O)CCn3nc(-c4cccn4C)cc32)cc1,inactive: -5.65%,
Cc1cc(Nc2ccccc2F)n2nc(-c3ccccc3)nc2n1,inactive: 16.4%,
CCOC(=O)C1CCN(c2cc3c(cc2NC(=O)c2ccc(Cl)cc2)n(C)c(=O)n3C)CC1,inactive: 3.23%,
COC(=O)c1ccc(Cl)cc1NC(=O)N1CC2CCCN2c2ccccc21 (stereo unspecified),inactive: 1.7%,
COc1ccc(S(=O)(=O)NCc2ccc3c(c2)CCN3C(=O)c2ccccc2)cc1OC,inactive: 1.88%,
Cc1cc(C)c(Nc2nc3ccccc3n3c(C)nnc23)c(C)c1,inactive: 3.09%,
CCOc1ccc(-c2c(C)nn3c(C)c(C(=O)NCc4cccc(OC)c4)cnc23)cc1OCC,inactive: 0.243%,
CC(C)(C)C(=O)Nc1ccc(-c2nc3ccccc3s2)cc1,inactive: 0.187%,
CCc1ccc(CN2C(=O)c3ccccc3C2C(=O)NC2CCCCCC2)cc1 (stereo unspecified),inactive: 12%,
CCOC(=O)c1ccc(NC(=O)CC2C(=O)N(c3ccccc3)C(=O)N2Cc2ccc(C)cc2)cc1 (stereo unspecified),inactive: -2.61%,
Cc1nn(C(=O)COc2ccc(Cl)cc2)c(C)c1Sc1ccccc1,inactive: 23.8%,
COc1ccc(C(=O)Nc2cnc3ccccn3c2=O)cc1,inactive: 18.7%,
COc1ccc(CCNC(=O)CCCn2c(=O)c3ccccc3n(CC(=O)Nc3cccc(C)c3)c2=O)cc1OC,inactive: 7.93%,
CCc1ccccc1Nc1nn2c(=O)c3ccc(C(=O)NC4CCC(C)CC4)cc3nc2s1 (stereo unspecified),inactive: -11.7%,
CC(=O)Nc1ccc(S(=O)(=O)NCc2ccc3c(c2)CCN3C(C)=O)cc1,inactive: -12%,
Cc1oc(-c2ccccc2)nc1Cn1c(SCc2cccc(C(F)(F)F)c2)nc2cccnc21,inactive: -1.3%,
CCc1cnc2c(c1SCc1c(F)cccc1Cl)c(=O)n(C)c(=O)n2C,inactive: 6.24%,
COc1ccc(-n2ncc(C(=O)N3CCN(Cc4ccccc4)CC3)c2C2CCN(C(=O)OC(C)(C)C)CC2)cc1,inactive: -16.3%,
CCOc1cc(C(=O)N(Cc2nc(-c3ccc(C)cc3)no2)C(C)C)cc(OCC)c1OCC,inactive: -24.6%,
CCc1ccc(NC(=O)CSc2nc3n[nH]c(C)c3c(=N)n2-c2ccc(C)cc2)cc1,inactive: -3.29%,

SMILES,"activity change, negative = cytotoxicity",Potency
O=C(Cc1ccc(NC(=O)N2CCCCc3ccccc32)cc1)NCc1ccccc1Br,inactive: 0.734%,
Cc1cccc(CCNC(=O)C2CCC(CNS(=O)(=O)c3c(C)cc(C)cc3C)CC2)c1 (stereo unspecified),inactive: -28.7%,
COc1cc(Cl)c(C)cc1NC(=O)Cn1cc(S(=O)(=O)N2CCN(c3ccccc3F)CC2)c2ccccc2c1=O,inactive: 13.1%,
COc1ccccc1CNc1ccc(-c2nc(-c3ccccn3)no2)cc1[N+](=O)[O-],inactive: -1.94%,
O=C(NCc1ccc(F)cc1)c1c2c(nc3ccccc13)C(=O)N(C1CCCCC1)C2,inactive: 3.22%,
COc1ccc(OC)c(NC(=O)CCNS(=O)(=O)c2cccc3nsnc23)c1,inactive: -0.947%,
Cc1ccc(NC(=O)CN(C)S(=O)(=O)c2ccc3c(c2)n(C)c(=O)c(=O)n3C)c(C)c1,inactive: 3.66%,
N#Cc1ccc(OC(=O)c2cc(-c3ccc(Cl)cc3)on2)cc1,inactive: 0.803%,
O=C(CCC1N=C2c3ccccc3N=C(SCC(=O)Nc3ccccc3F)N2C1=O)NCc1ccco1 (stereo unspecified),inactive: -19.2%,
Cc1cccc(NS(=O)(=O)c2ccc3[nH]c(=O)[nH]c3c2)c1C,inactive: -26.6%,
CC1CCN(c2cc3c(cc2F)c(=O)c(S(=O)(=O)c2cccc(Cl)c2)cn3Cc2ccccc2)CC1,inactive: -4.36%,
COc1ccccc1CNS(=O)(=O)c1ccc(-c2cc(C(F)(F)F)on2)s1,inactive: -20%,
CC1CCc2c(sc(NC(=O)Cn3nnc(-c4ccc(C(F)(F)F)cc4)n3)c2C#N)C1 (stereo unspecified),inactive: 0.532%,
COc1ccc(NC(=O)C(=O)NCCc2sc(-c3ccc(Cl)cc3)nc2C)cc1,inactive: -1.83%,
CCOc1ccccc1-c1noc(CSc2nnc(-c3ccccc3)n2-c2cccc(C)c2)n1,inactive: 4.66%,
CCOc1ccc(NC(=O)c2ccc3c(SCC(=O)O)c4c(nc3c2)CCC4)cc1,inactive: 4.59%,
COc1ccccc1NC(=O)N1CCN(c2nnc(C)c3c(C)n(-c4ccc(Cl)cc4)nc23)CC1,inactive: -2.85%,
CCOc1ccccc1NC(=O)COC(=O)c1cn(CC)c2nc(C)ccc2c1=O,inactive: 17.1%,
O=C(Nc1cccc(C(F)(F)F)c1)N1CCC(CN2CCCCCC2)CC1,inactive: 17.8%,
COc1ccccc1C(=O)Nc1ccc(NC(=O)c2cccs2)cc1,inactive: -0.565%,
CCOc1ccc(S(=O)(=O)NCC(c2ccco2)S(=O)(=O)c2ccc(C)cc2)cc1 (stereo unspecified),inactive: -2.01%,
COc1ccc(Nc2cc(C(=O)NCCCN(C)Cc3ccccc3)c3ccccc3n2)c(OC)c1,inactive: 11.4%,
CCOc1ccc(NC(=O)c2ccc3snnc3c2)cc1,inactive: 13.9%,
CCOC(=O)c1cnc2ccc(OCC)cc2c1N1CCN(c2ccccc2F)CC1,inactive: -5.11%,

SMILES,"activity change, negative = cytotoxicity",Potency
CCOC(=O)C1CCC(CN(Cc2ccc(OC)cc2)S(=O)(=O)c2ccc(F)c(C(=O)Nc3cc(C)ccc3C)c2)CC1 (stereo unspecified),inactive: 1.43%,
Cc1cccc(-c2nc(CSc3nncn4c3cc3sccc34)c(C)o2)c1,inactive: 5.75%,
CCOC(=O)c1ccc(CN(Cc2ccccc2)S(=O)(=O)c2ccc(Cl)cc2)cc1,inactive: 0.187%,
CC(C)Oc1ccc(CNC(=O)C2CCN(C(=O)N3CC(C)Oc4ccccc43)CC2)cc1 (stereo unspecified),inactive: 3.77%,
CC(=O)c1cc(-c2ccccc2)n(CC(=O)NCCc2ccc(C)cc2)c1C,inactive: 3.23%,
FC(F)(F)c1cc(-c2cccc(Br)c2)nc2ncnn12,inactive: 6.68%,
COc1ccc(-c2csc3nc(-c4ccccc4)oc(=O)c23)cc1OC,inactive: 11.8%,
O=C(NC1CCCCC1)c1ccc(CSc2nc3ccncc3n2Cc2ccccc2F)cc1,inactive: -12.6%,
COc1ccc(NC(=O)CSc2nc(-c3cccs3)cc(C(F)(F)F)n2)c(OC)c1,inactive: -4.15%,
COCCCNC(=O)c1ccc2c(c1)nc1n2CCCCC1,inactive: 6.29%,
CCOc1ccc2nc(N3CCC(C(=O)Nc4cc(C)ccc4C)CC3)sc2c1,inactive: 0.128%,
Cc1noc(Cn2c(=O)c3cc4c(cc3n(CC(=O)Nc3ccccc3F)c2=O)OCO4)n1,inactive: 4.19%,
CCN(CC)CCCNC(=O)CSc1nc(-c2ccc(OC)cc2)cc(C(F)(F)F)n1,inactive: -17.4%,
O=C(CSCc1cnn(-c2ccccc2)c1-n1cccc1)NCc1ccc(F)cc1,inactive: -8.81%,
CCc1ccc(NC(=O)CSc2ccc(-c3cccs3)nn2)cc1,inactive: 8.55%,
CCCCN(CC)C(=O)C1CCCN(c2ncnc3c2nc2n3CCCCC2)C1 (stereo unspecified),inactive: -14.9%,
CCOc1ccc(CNC(=O)CCn2c(=O)c3cccn3c3ccc(F)cc32)cc1,inactive: -2.95%,
CCOC(=O)c1ccc(NC(=O)c2ccc(CN3C(=O)CCn4nc(C)cc43)cc2)cc1,inactive: 5.39%,
O=C(CSc1nc2ccsc2c(=O)n1-c1ccc(Br)cc1)NCc1ccccc1,inactive: 4.04%,
Cc1ccccc1Cn1cnc2nc3c(cc2c1=O)CC(C)CC3 (stereo unspecified),inactive: 3.09%,
CCc1cccc(C)c1NC(=O)CCCn1nc(C)c2sc3ccccc3c2c1=O,inactive: 1.07%,
Cc1cc(N2CCCCC2)nc2ccc(NC(=O)/C=C/c3ccc(OCCC(C)C)cc3)cc12,inactive: -7.45%,
O=C(NCc1nc2ccccc2[nH]1)c1cccc(Cl)c1,inactive: -1.75%,
O=C(Cn1c(=O)c2ccccc2n2nncc12)Nc1cccc(F)c1,inactive: 27.6%,

# From PubChem BioAssay AID1508642 (National Center for Advancing Translational Sciences (NCATS), 2021)
